# From PubChem BioAssay AID686979 (National Center for Advancing Translational Sciences (NCATS), 2013)
# Out of some 420,000 compounds screened, about 50,000 (12%) were called active. The inconclusive results got no clear call from the source; some entries with a clear call stand among them for comparison. Calls follow the shape of the dose curve; as a rule, active = well fitted inhibition curve with a large enough effect; inconclusive = small, poorly fitted or top-dose-only effect; inactive = flat fitted curve, though single readings scatter. Potencies of inconclusive entries are left out as doubtful fits.
# Experiment: qHTS for Inhibitors of human tyrosyl-DNA phosphodiesterase 1 (TDP1): qHTS in cells in presence of CPT; also: nearly all actives have a fitted effect of over 55% in size
# Conditions: chicken DT40 Tdp1-/-;hTDP1 cells + 20 nM CPT, ATP luminescence, 48 h; activity change, negative = growth inhibition: at 46.2 µM (top of the series)
# How it was run: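 Cell growth measured by CellTiter-Glo luminescence after a minimum 48 h, 37 C compound exposure with 20 nM CPT in Tdp1-knockout DT40 cells stably expressing hTDP1, seeded 400/well; qHTS titration format.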
# % is scaled to controls: 0 for no effect and ±100 for the full control effect; potency is read from the fitted curve at half-maximal effect; tags tell the direction and shape of the fitted curve.
SMILES,Potency,"activity change, negative = growth inhibition"
CC(=O)c1ccc(OCC(O)CN2CCN(c3ccc(F)cc3)CC2)cc1 (stereo not drawn),"inconclusive [inhibitor, single point]",
O=C(COC(=O)c1ccccc1Nc1ccccc1)Nc1ccccc1,inactive,
CN1C(=O)[C@@H]2C[C@@]3([C@@]45C[C@H]6C(=O)N(C)[C@@H](Cc7ccccc7)C(=O)N6[C@@H]4Nc4ccccc45)c4ccccc4N[C@H]3N2C(=O)[C@@H]1Cc1ccccc1,"inconclusive [inhibitor, partial curve]",
CCCCOc1cccc(OCCCC)c1C(=O)Nc1cc(C)on1,"inconclusive [inhibitor, single point]",
O=C(COC(=O)COc1ccc(Cl)cc1)NCc1cccs1,"inconclusive [inhibitor, full curve]",
CC(=O)Nc1ccc(S(=O)(=O)NC2(C(F)(F)F)NC(=O)N(CCc3ccc(F)cc3)C2=O)cc1 (stereo not drawn),inactive,
CCN(CC)c1ccc(NC(=O)CSc2nnc3nc(C)cc(C)n23)cc1,inactive,
O=C(Nc1ccc(C2CC2(Cl)Cl)cc1)c1cccc([N+](=O)[O-])c1 (stereo not drawn),active: 23.1 µM,
COC(=O)c1ccc(C23CC4(C2)[C@H](CN(C)[C@@H]4c2ccccc2)C3c2ccc(Cl)nc2)cc1 (stereo partly drawn),"inconclusive [inhibitor, single point]",
Cc1cc2cc(C(c3nnnn3C3CCCC3)N(Cc3cccnc3)Cc3ccco3)c(=O)[nH]c2cc1C (stereo not drawn),"inconclusive [inhibitor, single point]",
CCCNNC(=O)C(O)(c1cccc(C)c1)c1cccc(C)c1,inactive,
Cc1ccc2nc(CCl)[n+]([O-])c(-c3ccccc3)c2c1,active: 25.9 µM,
COc1ccc(NC(=O)c2cncc(Br)c2)cc1S(=O)(=O)N1CCCCC1,"inconclusive [inhibitor, single point]",
Cc1ccccc1CN1C(=O)c2ccccc2S1(=O)=O,inactive,
CC(C)(C)C(=O)N(Cc1ccc(Cl)cc1)Cc1cccnc1,inactive,
O=C(NC(Cc1ccccc1)C(=O)O)C1CCN(S(=O)(=O)c2ccccc2C(F)(F)F)CC1 (stereo not drawn),inactive,
Cc1cc(/C=C(/C#N)C(=O)Nc2ccccc2)c(C)n1-c1cccnc1,"inconclusive [inhibitor, single point]",
CCOC(=O)Cc1cc(=O)n2[nH]c(-c3ccccc3)cc2n1,inactive,
Cc1ccc2c(Cl)c(C)c(N3CCCCC3)nc2n1,"inconclusive [inhibitor, single point]",
CC(=O)c1c(C)n(-c2ccc(N(C)C)cc2)c2ccc(OCC(N)=O)cc12,active: 18.4 µM,
COc1ccc(CC(=O)NC2CCN(CC(=O)N3CCCc4ccccc43)CC2)cc1OC,inactive,
CCOc1cc(CNC(=O)Cn2c(-c3cccs3)cc3cc(F)ccc32)ccc1OC,"inconclusive [inhibitor, single point]",
Cc1c(C(=O)Nc2cccc([N+](=O)[O-])c2)sc2ncn(CC(=O)N3CCOCC3)c(=O)c12,"inconclusive [inhibitor, single point]",
Cc1c(C)c2ccc(O[C@@H]3O[C@H](CO)[C@@H](O)[C@H](O)[C@H]3O)c(C)c2oc1=O,inactive,
Cc1cc(C)n2nc(C(=O)OCCOc3cccc(Br)c3)nc2n1,,inconclusive: -34.5% [inhibitor]

SMILES,Potency,"activity change, negative = growth inhibition"
CCCCNc1c2c(nc3c(-c4ccccc4)c(C)nn13)CCC2,active: 20.6 µM,
CN(CCc1ccccc1)C(=O)c1cccc(NC(=O)Cc2cccc(NC(=O)C3CCN(C(=O)C4CC4)CC3)c2)c1,"inconclusive [inhibitor, single point]",
O=C(N/N=C/c1cccs1)C1CC(=O)N(c2ccccc2)C1 (stereo not drawn),inactive,
O=C(c1ccc([N+](=O)[O-])cc1[N+](=O)[O-])N1CCN(C(=O)C2CCCO2)CC1 (stereo not drawn),"inconclusive [inhibitor, single point]",
O=C(/C=C/c1ccco1)NC(=S)Nc1cccc(-c2nc3ccccc3s2)c1,active: 4.61 µM,
CCOC(=O)C1=C[C@@H](C(C)(C)C)N(S(=O)(=O)c2ccc(C)cc2)[C@H]1c1ccccc1,"inconclusive [inhibitor, single point]",
CC(C)NC(=O)C1(C)CCN1Cc1ccc(-c2ccccc2)cc1 (stereo not drawn),active: 11.6 µM,
COC(=O)C1=C(c2ccccc2)c2ccccc2S(=O)(=O)N1CC(=O)Nc1ccccc1Cl,"inconclusive [inhibitor, single point]",
CCOC(=O)C1CCN(C(=O)c2ccccc2NS(=O)(=O)c2ccc(C)cc2)CC1,,inconclusive: -33.3% [inhibitor]
COc1cccc2cc(C(=O)NNC(=O)c3ccc(Br)cc3)c(=O)oc12,"inconclusive [inhibitor, single point]",
COc1cccc(C(=O)NC(=S)Nc2ccccc2N2CCCC2)c1,active: 23.1 µM,
Cc1ccc(C)c(N2CCN(Cc3csc(C)c3)CC2)c1,"inconclusive [inhibitor, single point]",
CC(=O)Nc1ccc(NC(=O)C2CCCN(C(=O)c3ccc(Cl)cc3)C2)cc1 (stereo not drawn),inactive,
Cc1ccc(C)c(NC(=O)Cn2c(=O)n(Cc3ccccc3)c(=O)c3oc4ccccc4c32)c1,active: 4.61 µM,
CCOCCCn1c(=N)c(C(=O)NCC2CCCO2)cc2c(=O)n3cccc(C)c3nc21 (stereo not drawn),inactive,
CCc1nn2c(=O)cc(COC(=O)c3cc(Cl)c(OC)c(OC)c3)nc2s1,"inconclusive [inhibitor, single point]",
CC(C)c1ccc(CN2CCC2(C)C(=O)Nc2cccc(Oc3ccccc3)c2)cc1 (stereo not drawn),"inconclusive [inhibitor, single point]",
O=C(Nc1cccc(F)c1)c1ccc(-c2ccccc2)s1,"inconclusive [inhibitor, single point]",
CC(C)(C)S(=O)N1Cc2cn(Cc3ccccc3)c(=O)cc2[C@@H]1CCO (stereo partly drawn),inactive,
COc1ccc(OC)c(S(=O)(=O)NCc2csc(-c3ccccc3)n2)c1,"inconclusive [inhibitor, partial curve, poor fit]",
CCOC(=O)c1ccc(S(=O)(=O)N2CCN(CC3CC=CCC3)CC2)cc1 (stereo not drawn),"inconclusive [inhibitor, single point]",
Cc1cccc(NS(=O)(=O)c2ccc3c(c2)CCN3C(=O)C2CCC2)c1,active: 18.4 µM,
CCOc1ccc(-n2c(=S)sc3c(=O)[nH]c(SCC(=O)C(C)(C)C)nc32)cc1,active: 25.9 µM,
CCN(Cc1ccccc1)c1ccc(/C=C/c2nccc3ccccc23)cc1,active: 12.6 µM,
NS(=O)(=O)c1ccc(NC(=O)CSc2nc3ccccc3n2-c2ccccc2)cc1,"inconclusive [inhibitor, single point]",

SMILES,Potency,"activity change, negative = growth inhibition"
OB(O)c1ccc(Cl)s1,inactive,
CCOC(=O)C1=C(Nc2ccc(OC)cc2)C(N)=NC1=N,active: 3.66 µM,
COc1ccc2c(c1)NC(c1cccnc1)=NC(c1ccc(F)cc1)=N2,active: 14.6 µM,
O=C1CCCC2=C1C(c1ccc(OS(=O)(=O)c3ccc(Cl)cc3)cc1)C1=C(CCCC1=O)O2,"inconclusive [inhibitor, single point]",
Cc1ccc(S(=O)(=O)c2cn(Cc3ccccc3Cl)c3ccc(F)cc3c2=O)cc1,active: 18.4 µM,
Cc1ccccc1Cn1c2ccccc2c2cnn(CC(=O)NCc3ccco3)c(=O)c21,"inconclusive [inhibitor, single point]",
CC(=O)NS(=O)(=O)c1cccnc1Nc1ccc(Cl)c(Cl)c1,"inconclusive [inhibitor, single point]",
COC(=O)c1ccc(-c2ccco2)n1Cc1nc(-c2ccc(OC)c(OC)c2)oc1C,active: 23.1 µM,
O=C(CNC(=O)C1COc2ccccc2O1)N/N=C\c1ccccc1Cl (stereo not drawn),inactive,
O=C(Nc1nnc(C2CC2)s1)C1Cc2ccccc2CN1C(=O)c1ccco1 (stereo not drawn),"inconclusive [inhibitor, single point]",
CC1(C(=O)NS(=O)(=O)C2CC2)CCN(C(=O)c2ccc(F)cc2Cl)C1 (stereo not drawn),inactive,
O=[N+]([O-])c1ccc(O)c(-c2nn[nH]n2)c1,active: 18.4 µM,
CC(C)C(=O)Nc1ccc(-c2nc3cccnc3o2)cc1,inactive,
CC(C)(C)N(Cc1ccccc1)C(=O)CSc1nnc(CNc2ccc(F)cc2)o1,active: 11.2 µM,
O=C(COc1ccc(F)cc1)N/N=C/c1cccc2cccnc12,active: 20.6 µM,
CCn1c(CCl)nc2cc(S(=O)(=O)N3CCOCC3)ccc21,active: 7.31 µM,
O=S(=O)(c1ccc(N2CCCC2)cc1)C(F)(F)F,"inconclusive [inhibitor, single point]",
COc1ccc(Br)cc1CNC(=O)c1ccc2c(c1)N(Cc1ccc(C)cc1)CCS2,"inconclusive [inhibitor, partial curve]",
COc1ccc(NC(=O)C2CCCN(c3ncnc4onc(C)c34)C2)cc1OC (stereo not drawn),"inconclusive [inhibitor, single point]",
O=C(CN1CCOCC1)N1CCc2ccccc2C(c2ccccc2)C1 (stereo not drawn),inactive,
CC(C)(C)NC(=O)C(c1ccc(Cl)cc1)N(Cc1ccco1)C(=O)CCl (stereo not drawn),active: 4.61 µM,
Cc1ccc(S(=O)(=O)N(C)C)cc1NC(=O)C(C)NC(C)c1cccs1 (stereo not drawn),"inconclusive [inhibitor, single point]",
Cc1ccccc1NC(=O)C1CCN(S(=O)(=O)c2c(C)noc2/C=C/c2ccco2)CC1,inactive,
